In US20230042694A1 (SUZHOU CUREMED BIOMEDICAL TECHNOLOGY, published 2023):

Biological target: KRAS protein (UniProt P01116)
Assay: cell-based or functional assay

B1: recombinant polypeptide K19-VHK (N-K19 (first polypeptide)-linker peptide-VHL (second polypeptide)-C) (other)
chain: [sequence of about 200 residues not given]LEGGGGSAAAMDLGKKLLEAARAGQDDEVRILMANGADVNASDRWGWTPLHLAAWWGHLEIVEVLLKRGADVSAADLHGQSPLHLAAMVGHLEIVEVLLKYGADVNAKDTMGATPLHLAARSGHLEIVEELLKNGADMNAQDKFGKTTFDISTDNGNEDLAEILQKLVDGGSDYKDDDDK
**Q.** Which “Percentage of KRAS protein level (Western Blot, H358 cells, 6 hours after transfection; protein level of EV29-K19-VHKC as control)” value does the source give for B1 here?
**A.** The value was 26.8%.
